Test results from PubChem BioAssay AID686979 (National Center for Advancing Translational Sciences (NCATS), 2013).
“And” between values parts separate entries of the source, which are not always exact repeats. Equal values may be shown once. Screen size: about 420,000 compounds; about 50,000 (12%) were called active. Inconclusive results, whose numbers are uncertain, are shown with a selection of clear calls. The call rests on the fitted dose curve; in most records, active means well fitted inhibition curve with a large enough effect; inconclusive means small, poorly fitted or top-dose-only effect; inactive means flat fitted curve, though single readings scatter. Potencies of inconclusive entries are left out as doubtful fits.

Assay: qHTS for Inhibitors of human tyrosyl-DNA phosphodiesterase 1 (TDP1): qHTS in cells in presence of CPT; further: nearly all actives have a fitted effect of over 55% in size
Conditions: chicken DT40 Tdp1-/-;hTDP1 cells + 20 nM CPT, ATP luminescence, 48 h; activity change, negative = growth inhibition: at 46.2 µM (top of the series) unless noted
How it was run: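 Cell growth measured by CellTiter-Glo luminescence after a minimum 48 h, 37 C compound exposure with 20 nM CPT in Tdp1-knockout DT40 cells stably expressing hTDP1, seeded 400/well; qHTS titration format.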
On the % scale 0 is the no-effect control and ±100 the full control effect; potency means the concentration at half of the fitted maximal effect; tags describe the fitted curve by direction and shape.

Row | SMILES | activity change, negative = growth inhibition | Potency
1 | C[C@]12c3[nH]c4ccc(Cl)cc4c3CCN1C(=O)[C@@H](CC(=O)NCCC1=CCCCC1)C[C@@H]2C(=O)N1CCCCC1 | inactive: -27.9% | –
2 | COc1ccc(/C(C)=N/NC(=S)Nc2cc(C)ccc2C)cc1 | – | active: 23.1 µM
3 | COc1ccc(C2c3cc(OC)c(OC)cc3CCN2C(=O)c2ccccc2)cc1OC (stereo unspecified) | – | inconclusive [inhibitor, single point]
4 | Cc1cccn2cc(CCNC(=O)Cc3cccs3)nc12 | inactive: 6.2% | –
5 | CCOC(=O)c1ccc(CSC(=N)N)o1 | – | active: 29.1 µM
6 | O=C(NN=Cc1ccc(N2CCOCC2)cc1)c1cc2ccccc2cc1O | inactive: -27.4% | –
7 | CC1CCCCC1NC(=O)Cc1ccc(S(=O)(=O)N2CCOCC2)s1 (stereo unspecified) | – | inconclusive [inhibitor, single point]
8 | CCn1c(=O)c(C(=O)Nc2ccc(C)cc2C)c(O)c2ccccc21 | – | inconclusive [inhibitor, single point]
9 | CCCCOc1ccc(CNC(=O)c2ccc(NC(=O)N3CCSc4ncccc43)cc2)cc1 | – | inconclusive [inhibitor, single point]
10 | Cc1ccc(-n2ncc(C(=O)N3CCC(c4ccccc4)C3)c2C2CCN(C(=O)OC(C)(C)C)CC2)cc1 (stereo unspecified) | – | active: 14.6 µM
11 | O=C(Nc1ccc(N2CCOCC2)cc1N1CCOCC1)c1ccc(Cl)cc1 | – | inconclusive [inhibitor, partial curve]
12 | Cn1ncc(S(=O)(=O)Cc2ccccc2)c(Cl)c1=O | – | active: 1.46 µM
13 | CN(C)c1ccc(C(C(=O)NCc2ccccc2)N(Cc2ccco2)C(=O)c2snc(C(N)=O)c2N)cc1 (stereo unspecified) | – | active: 14.6 µM
14 | O=C(Nc1nc(-c2ccc(Br)cc2)ns1)c1ccccc1F | inconclusive: -32.1% [inhibitor] | –
15 | CCN(CC)c1ccc(CNc2nc3ccccc3n2CC)cc1 | – | inconclusive [inhibitor, single point]
16 | O=S(=O)(Nc1cccc(-c2ccc(N3CCOCC3)nn2)c1)c1ccc(F)cc1F | inactive: -25.2% | –
17 | CN1CCN(C(=O)/C=C\c2ccc(Cl)cc2)CC1 | inactive: 6.7% | –
18 | COc1ccc(C)cc1N(CC(=O)NCCN1CCOCC1)S(=O)(=O)c1ccccc1 | inactive: -0.164% | –
19 | CCCc1nn2c(C)c(-c3ccccc3)nc2s1 | inactive: -20.8% | –
20 | Cc1nc(-c2coc3cc(OCC(=O)O)ccc3c2=O)cs1 | – | inconclusive [inhibitor, partial curve]
21 | COc1ccc(/C=N/n2cnnc2)cc1COc1ccccn1 | inactive: -18.5% | –
22 | CC(C)(C)Cc1c(-c2ccc(F)cc2)nc2ccc(Br)cn12 | – | inconclusive [inhibitor, single point]
23 | CCC(=O)NC(=S)Nc1cccc(Cl)c1N1CCCCC1 | – | active: 11.2 µM
24 | O=C(O)c1nn(Cc2csc(-c3ccccc3)n2)c(=O)c2ccccc12 | – | inconclusive [inhibitor, single point]
25 | CCC(C)[C@@H](NC(=O)OC(C)(C)C)c1nnc(S(=O)(=O)Cc2cccc(C)c2)o1 (stereo partly specified) | – | active: 2.06 µM
26 | CNc1ncncc1-c1c(C)noc1C | – | inconclusive [inhibitor, single point]

Row | SMILES | activity change, negative = growth inhibition | Potency
27 | CCCCN(C(=O)CC1OC(=O)c2ccccc21)c1c(N)n(CCCC)c(=O)[nH]c1=O (stereo unspecified) | inactive: -10.5% | –
28 | Cc1cc(C)c2oc(C(=O)Nc3ccc(S(=O)(=O)N(C)c4ccccc4)cc3)cc(=O)c2c1 | – | inconclusive [inhibitor, single point]
29 | COc1ccccc1N1CCN(CCCCOc2c(OC)cccc2OC)CC1 | – | inconclusive [inhibitor, partial curve]
30 | O=C1C2CC=CCC2C(=O)N1Cc1ccccc1 (stereo unspecified) | inactive: -0.153% | –
31 | O=C(O)CNC(=S)N(Cc1ccco1)Cc1ccccc1Cl | inactive: -16.6% | –
32 | O=C(c1ccco1)N1CCC2(CCCN(C(c3ccccc3)c3ccccc3)C2)CC1 | – | inconclusive [inhibitor, single point]
33 | CCC(=O)N1CCc2cc(S(=O)(=O)N(C)c3cccc(C)c3)ccc21 | – | inconclusive [inhibitor, single point]
34 | CN(CC(=O)Nc1ccccc1Br)C(=O)CNC(=O)C1CCCCC1 | inactive: -15.6% | –
35 | CCS(=O)(=O)c1ccc2oc(Nc3cccc(OC)c3)nc2c1 | – | inconclusive [inhibitor, single point]
36 | CCCCCC[N+](C)(C)CCSSCC[N+](C)(C)CCCCCC | inactive: -6.86% | –
37 | O=C1c2cccc(OCC(=O)N3N=C(c4cccs4)CC3c3ccc(F)cc3)c2CCN1Cc1ccccc1 (stereo unspecified) | – | inconclusive [inhibitor, partial curve, poor fit]
38 | CC1CCCN(C(C(=O)NC2CCCCC2)c2cc3c(cc2[N+](=O)[O-])OCO3)C1 (stereo unspecified) | – | inconclusive [inhibitor, single point]
39 | O=C1NC(Cc2ccc(O)cc2)c2nc3cc(Cl)ccc3c(=O)n2-c2cc(Cl)ccc21 (stereo unspecified) | – | inconclusive [inhibitor, single point]
40 | c1ccc(-c2sc3ccccc3c2-c2ccc(OCCN3CCCC3)cc2)cc1 | – | active: 20.6 µM
41 | Cc1cc(/C=N/NC(=O)c2cc3ccccc3o2)c(C)n1C | – | active: 14.6 µM
42 | CON(C)c1nc(OCCNC(=O)COc2ccc(Cl)cc2C)nc(N(C)C)n1 | – | active: 8.2 µM
43 | CN1CCN(NC(=O)NC2CCCCC2)CC1 | inactive: -6.31% | –
44 | CC1Cc2ccccc2N1C(=O)/C=C/c1cccc(F)c1 (stereo unspecified) | inactive: -0.099% | –
45 | CC(C)c1ccc(OCC(O)Cn2cnc3ccccc32)cc1 (stereo unspecified) | – | active: 18.4 µM
46 | COC(=O)C[C@H]1c2cc(F)cc(F)c2S(=O)(=O)N1C1CCN(Cc2ccccc2)CC1 | – | active: 8.91 µM and active: 9.2 µM
47 | COc1ccc(-n2c(=O)c(C)nc3cnc(OC)nc32)cc1 | inactive: -2.58% | –
48 | Cc1cccc(N2CCN(C(=O)CSc3ccc4c(c3)OCCO4)CC2)c1C | inactive: -20.6% | –
49 | COc1ccc(CCNC(=O)CN2CCCc3ccccc32)cc1OC | inconclusive: -31.6% [inhibitor] | –
50 | COc1ccc(-c2cnc3c(NC=O)cc(-c4ccoc4)cn23)cc1OC | – | active: 5.17 µM
51 | O=C1CC[C@H](C(=O)O)N1 | inactive: -3.31% | –
